Experimental data taken from the supplement of paper PMC12217912.
The other results are listed elsewhere or left out. Sequences were assembled here from the parent chain. Values near 0.05 are background.

B1: TEV protease; numbered along this chain (parent)
chain: MGESLFKGPRDYNPISSSICHLTNESDGHTTSLYGIGFGPFIITNKHLFRRNNGTLVVQSLHGVFKVKDTTTLQQHLVDGRDMIIIRMPKDFPPFPQKLKFREPQREERICLVTTNFQTKSMSSMVSDTSCTFPSGDGIFWKHWIQTKDGQCGSPLVSTRDGFIVGIHSASNFTNTNNYFTSVPKNFMELLTNQEAQQWVSGWRLNADSVLWGGHKVFMVKPEEPFQPVKEATQL

Variants of: B1
Experiment: raw area under fraction-flipped curve 0-4 h after induction (AUC4h, not background-subtracted), DNA-recorder readout of cleavage of the substrate (dimensionless); higher = more cleavage of the substrate by the protease variant
Details: temperature: 34 °C; time window: 0-4 h after rhamnose induction
Procedure: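 In vivo DNA recorder in E. coli TOP10(DE3) ΔrhaA at 34 °C. Each TEVp single-site mutant (parent TEVp 0) is paired with a single-site variant of the 7-mer TEVs (canonical ENLYFQ|S). The substrate sits between flexible linkers in a Bxb1-sfGFP-TEVs-SsrA fusion, so cleavage stabilises Bxb1 and speeds flipping of a recombination array, read by NGS. The value is the raw area under the fraction-flipped curve over 0-4 h after rhamnose induction (AUC4h), with ≥20 reads per time point. It is not background-subtracted; inactive controls average about 0.047.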
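Note: Bxb1 expression induced with 0.2% (w/v) L-rhamnose at OD600 near 0.5, cultures sampled hourly, flipped fraction per protease–substrate barcode pair counted by paired-end Illumina sequencing.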

Variant | area with substrate ENLYAQS | area with substrate ENLYDQS | area with substrate ENLYEQS | area with substrate ENLYGQS | area with substrate ENLYHQS | area with substrate ENLYKQS | area with substrate ENLYLQS | area with substrate ENLYMQS | area with substrate ENLYNQS | area with substrate ENLYPQS | area with substrate ENLYQQS | area with substrate ENLYSQS | area with substrate ENLYWQS | area with substrate ENLYYQS | area with substrate ENLYIQS | area with substrate ENLYRQS | area with substrate ENLYTQS | area with substrate ENLYVQS | area with substrate ENLYCQS
S130M | 0.0304 | 0.0801 | 0.0702 | 0.0612 | 0.073 | 0.066 | 0.0579 | 0.0729 | 0.0734 | 0.083 | 0.0453 | 0.0491 | 0.0725 | 0.0584 | – | – | – | – | –
F133H | 0.0943 | – | 0.0716 | 0.0683 | 0.0783 | 0.0041 | – | 0.0797 | 0.0884 | 0.0681 | – | 0.0843 | 0.0813 | 0.0613 | 0.13 | 0.0685 | 0.0633 | 0.133 | –
F133I | 0.083 | 0.0535 | 0.0663 | 0.0676 | 0.073 | 0.0728 | – | 0.0917 | 0.0731 | 0.0819 | – | 0.068 | – | 0.0724 | – | 0.0617 | – | 0.101 | 0.0798
P134V | 0.0724 | 0.0573 | 0.0697 | 0.0731 | 0.0274 | 0.0549 | – | – | 0.0587 | 0.0571 | 0.0756 | 0.0684 | 0.0686 | – | 0.0934 | 0.0609 | – | 0.0701 | 0.0605
S135W | 0.0507 | – | 0.0644 | 0.0658 | 0.0682 | 0.0115 | – | 0.0466 | 0.0556 | 0.0626 | 0.0471 | 0.0738 | – | 0.0917 | 0.0591 | 0.0581 | 0.0456 | 0.0619 | –
G138S | 0.0745 | – | 0.0772 | – | – | 0.0716 | – | 0.0788 | – | 0.0514 | – | – | – | – | – | 0.0579 | – | 0.111 | –
I139C | 0.0636 | 0.0714 | 0.0634 | – | 0.0786 | – | – | – | 0.0537 | 0.0616 | – | – | 0.0992 | – | 0.0865 | 0.0583 | – | – | –
F140Y | 0.0802 | 0.0678 | 0.0665 | – | 0.0814 | 0.0569 | – | – | 0.0744 | – | – | – | – | 0.0672 | – | – | – | 0.122 | 0.0803
I145L | 0.0706 | – | – | 0.0617 | 0.0707 | 0.052 | – | – | 0.0598 | – | 0.0667 | – | 0.0894 | 0.0514 | – | – | – | 0.0906 | –
I145M | 0.0571 | 0.0541 | 0.0537 | 0.0615 | 0.0604 | 0.0619 | – | 0.0714 | 0.0622 | 0.0597 | 0.0624 | 0.0471 | 0.0475 | 0.0573 | 0.114 | – | – | 0.058 | 0.158
Q146F | 0.0701 | 0.0616 | 0.0699 | 0.0678 | 0.0482 | – | – | – | – | – | 0.0642 | – | – | 0.0566 | 0.128 | 0.014 | – | – | –
Q146S | 0.0758 | 0.0657 | – | – | – | 0.0483 | – | – | 0.0694 | – | 0.0434 | – | 0.0938 | – | – | – | 0.0901 | – | –
T147A | 0.0748 | 0.0695 | – | 0.0617 | 0.0657 | 0.0589 | 0.0604 | 0.0682 | 0.0574 | 0.044 | – | 0.0715 | 0.0671 | 0.0705 | – | 0.0619 | – | 0.0696 | 0.078
T147H | 0.08 | 0.0711 | 0.0664 | 0.0421 | 0.0554 | 0.0577 | – | 0.0432 | 0.0544 | 0.0552 | 0.0626 | – | 0.0666 | 0.0591 | 0.0642 | 0.0565 | 0.0694 | 0.0792 | 0.0755
K148V | 0.0732 | 0.0649 | 0.0693 | 0.0622 | 0.0832 | 0.0652 | 0.0726 | 0.0866 | 0.0842 | 0.073 | – | – | – | – | 0.0964 | – | – | 0.127 | –
C152N | 0.0694 | 0.0625 | 0.0705 | – | 0.0679 | – | 0.0642 | 0.0582 | 0.062 | 0.0669 | 0.0677 | 0.0585 | 0.0581 | – | – | 0.0675 | – | – | –
V157P | 0.0512 | 0.0449 | 0.0535 | – | 0.0539 | 0.0409 | – | 0.0453 | 0.0539 | 0.0456 | 0.0544 | 0.0636 | 0.0562 | 0.0573 | 0.0573 | 0.0543 | 0.0543 | 0.053 | –
V157Q | 0.0763 | – | 0.0661 | 0.0487 | 0.0565 | 0.0754 | 0.0709 | 0.0601 | 0.0685 | 0.0285 | 0.0596 | 0.053 | – | 0.0816 | 0.1 | 0.0686 | – | 0.0725 | 0.0641
S158F | 0.0497 | 0.0536 | 0.0568 | – | – | 0.0613 | – | 0.052 | 0.0517 | – | – | – | 0.0584 | – | – | – | – | 0.0048 | –
D161I | 0.05 | 0.0635 | 0.0571 | 0.062 | 0.0465 | 0.0563 | – | – | 0.0898 | – | – | 0.0594 | 0.0451 | 0.0508 | 0.0612 | 0.0478 | – | – | –
G162K | 0.0699 | – | 0.0732 | – | 0.07 | – | – | 0.0909 | 0.0601 | – | – | – | – | 0.0574 | – | – | – | – | 0.0826
V165W | 0.041 | 0.0416 | 0.0663 | – | – | 0.0552 | 0.102 | 0.0257 | 0.0473 | 0.0287 | 0.0578 | 0.0754 | 0.0477 | 0.0489 | 0.0385 | 0.044 | 0.0476 | – | –
I167C | 0.0589 | – | 0.0633 | 0.0552 | 0.0632 | 0.0562 | 0.0545 | – | – | 0.0644 | – | 0.0805 | 0.0534 | 0.0624 | – | 0.0736 | – | 0.111 | –
N172I | 0.0457 | 0.0623 | 0.0466 | 0.0532 | 0.0709 | 0.0507 | – | 0.0546 | – | 0.0572 | 0.0678 | 0.0471 | 0.0605 | 0.053 | 0.0437 | 0.0392 | – | 0.0786 | –
N172T | 0.0635 | – | 0.0609 | 0.0612 | 0.0639 | – | – | 0.0684 | 0.0676 | – | – | – | 0.0588 | – | – | 0.0679 | 0.0726 | – | –
F173N | 0.0751 | – | 0.0578 | 0.0615 | 0.0698 | 0.0617 | – | – | – | 0.0483 | 0.062 | – | 0.0542 | – | – | – | – | – | 0.092
T174Q | 0.0616 | 0.0649 | 0.0612 | 0.0781 | 0.0606 | 0.0603 | – | 0.0712 | 0.069 | 0.0643 | 0.0608 | – | – | – | 0.0997 | 0.056 | – | – | –
T174W | 0.0635 | – | 0.062 | 0.0561 | 0.0647 | – | – | 0.0944 | 0.0451 | – | 0.0548 | 0.0741 | – | – | 0.142 | 0.0611 | 0.0849 | 0.107 | –
